Laboratory results published in the supplement of paper PMC7125110.
Variants at the background level are over-represented here.

B1: glmS ribozyme (parent)
chain: AUAAAAGCGCCAGAACUACAGAAAUGUAGUUGACGAGGAGGAGGUUUAUCGAAUUUUCGGCGGAUGCCUCCAAA

Key:
Conditions in all cases: with glucosamine-6-phosphate
glucosamine-6-phosphate [1] = variants of: B1; experiment: kcat; higher = faster cleavage; RNA array
In short: (§1)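 Barcoded ribozyme variants, transcribed in situ by E. coli RNA polymerase on sequenced MiSeq chips, were followed via a hybridised Cy3 probe at 37 °C. Glucosamine-6-phosphate ranged from 40 μM to 10 mM in HEPES/KCl/Mg(OAc)2 buffer. kobs came from decay fits to per-tile medians, and kcat and KM from weighted Michaelis–Menten fits.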

glucosamine-6-phosphate [2] = variants of: B1; experiment: self-cleavage kobs at 160 uM GlcN6P; higher = faster cleavage; RNA array
In short: as §1

glucosamine-6-phosphate [3] = variants of: B1; experiment: self-cleavage kobs at 2500 uM GlcN6P; higher = faster cleavage; RNA array
In short: as §1

glucosamine-6-phosphate [4] = variants of: B1; experiment: self-cleavage kobs at 10000 uM GlcN6P; higher = faster cleavage; RNA array
In short: as §1

glucosamine-6-phosphate [5] = variants of: B1; experiment: self-cleavage kobs at 40 uM GlcN6P; higher = faster cleavage; RNA array
In short: as §1

glucosamine-6-phosphate [6] = variants of: B1; experiment: self-cleavage kobs at 640 uM GlcN6P; higher = faster cleavage; RNA array
In short: as §1

| Variant | kcat (glucosamine-6-phosphate [1]) [s⁻¹] | self-cleavage kobs at 160 uM GlcN6P (glucosamine-6-phosphate [2]) [s⁻¹] | self-cleavage kobs at 2500 uM GlcN6P (glucosamine-6-phosphate [3]) [s⁻¹] | self-cleavage kobs at 10000 uM GlcN6P (glucosamine-6-phosphate [4]) [s⁻¹] | self-cleavage kobs at 40 uM GlcN6P (glucosamine-6-phosphate [5]) [s⁻¹] | self-cleavage kobs at 640 uM GlcN6P (glucosamine-6-phosphate [6]) [s⁻¹] |
| --- | --- | --- | --- | --- | --- | --- |
| C34G C61A | < 1e-05 | < 1e-05 | < 1e-05 | < 1e-05 |  |  |
| C34U C61A | < 1e-05 | < 1e-05 |  |  |  |  |
| C34U C61U | < 1e-05 | < 1e-05 | < 1e-05 | < 1e-05 | < 1e-05 | < 1e-05 |
| G35C G37C | < 1e-05 | < 1e-05 | < 1e-05 |  | < 1e-05 | < 1e-05 |
| G35C U56A G59A | < 1e-05 |  |  |  |  |  |
| G35U G37U | < 1e-05 |  | < 1e-05 | < 1e-05 | < 1e-05 |  |
| G35U U54G U56A | < 1e-05 |  |  |  | < 1e-05 |  |
| A36C A48U | < 1e-05 |  | < 1e-05 | < 1e-05 | < 1e-05 |  |
| A36C C61U | < 1e-05 |  | < 1e-05 | < 1e-05 |  |  |
| A36C C68U | < 1e-05 |  |  |  |  |  |
| A36C G63C | < 1e-05 |  |  |  |  | < 1e-05 |
| A36G G37A | < 1e-05 | < 1e-05 |  |  | < 1e-05 |  |
| A36U | < 1e-05 |  |  | < 1e-05 |  |  |
| A36U A42G | < 1e-05 |  |  |  | < 1e-05 | < 1e-05 |
| A36U A48C | < 1e-05 |  |  |  |  | < 1e-05 |
| A36U A52C | < 1e-05 | < 1e-05 |  |  | < 1e-05 |  |
| A36U C61G | < 1e-05 |  |  | < 1e-05 |  |  |
| A36U C71A | < 1e-05 |  |  |  |  |  |
| G37A A48U | < 1e-05 | < 1e-05 |  |  |  |  |
| G37U U46A | < 1e-05 | < 1e-05 |  |  | < 1e-05 |  |
| G37U U49A | < 1e-05 |  |  | < 1e-05 |  | < 1e-05 |
| G37U U56G | < 1e-05 |  |  |  | < 1e-05 |  |

| Variant | kcat (glucosamine-6-phosphate [1]) [s⁻¹] | self-cleavage kobs at 160 uM GlcN6P (glucosamine-6-phosphate [2]) [s⁻¹] | self-cleavage kobs at 2500 uM GlcN6P (glucosamine-6-phosphate [3]) [s⁻¹] | self-cleavage kobs at 10000 uM GlcN6P (glucosamine-6-phosphate [4]) [s⁻¹] | self-cleavage kobs at 40 uM GlcN6P (glucosamine-6-phosphate [5]) [s⁻¹] | self-cleavage kobs at 640 uM GlcN6P (glucosamine-6-phosphate [6]) [s⁻¹] |
| --- | --- | --- | --- | --- | --- | --- |
| G38A A64U | < 1e-05 |  |  | < 1e-05 |  |  |
| G38A C50A | < 1e-05 |  |  |  |  |  |
| G38A G62A | < 1e-05 |  |  | < 1e-05 | < 1e-05 | < 1e-05 |
| G38A G66A | < 1e-05 |  |  | < 1e-05 | < 1e-05 |  |
| G38C A64C | < 1e-05 | < 1e-05 |  | < 1e-05 |  | < 1e-05 |
| G38C C67G | < 1e-05 |  |  |  |  |  |
| G38C G60U | < 1e-05 |  | < 1e-05 | < 1e-05 | < 1e-05 | < 1e-05 |
| G38U A39G | < 1e-05 | < 1e-05 |  |  | < 1e-05 | < 1e-05 |
| G38U U56G C71G | < 1e-05 |  |  |  |  | < 1e-05 |
| G38U U65G | < 1e-05 |  |  |  | < 1e-05 | < 1e-05 |
| A39C G43U | < 1e-05 | < 1e-05 |  |  | < 1e-05 | < 1e-05 |
| A39C G59U | < 1e-05 |  |  |  | < 1e-05 |  |
| G41C C67A | < 1e-05 |  |  |  |  |  |
| G41C G51C | < 1e-05 |  |  | < 1e-05 | < 1e-05 |  |
| A42G G51U | < 1e-05 | < 1e-05 |  | < 1e-05 |  | < 1e-05 |
| A42U G43U | < 1e-05 |  |  |  |  |  |
| G43A U69A | < 1e-05 |  | < 1e-05 | < 1e-05 | < 1e-05 |  |
| G44U C71A | < 1e-05 | < 1e-05 |  |  | < 1e-05 | < 1e-05 |
| U47C G60A | < 1e-05 | < 1e-05 | < 1e-05 | < 1e-05 | < 1e-05 |  |
| U47G G63A | < 1e-05 | < 1e-05 | < 1e-05 | < 1e-05 | < 1e-05 |  |
| U49G C58U | < 1e-05 |  |  |  |  |  |
